Measured values published in the CheMixHub viscosity set.
± gives the uncertainty stated by the source. Not every entry of the source has a single result; some have several. This is not the full list of results. The source may hold further records. Values given together are repeats (runs, samples, wells, individuals or studies). Marks in square brackets tell the records apart. The letters are not those of the source and start again with each entry.

In the case of `CCCCN`, the viscosity (303.15 K, 101 kPa) is reported as 0.4434 ± 0.0058 mPa·s [study A] and 0.443 ± 0.0054 mPa·s [study B] and 0.443 ± 0.005 mPa·s [study C] and 0.443 ± 0.009 mPa·s [study D] and 0.4378 ± 0.0054 mPa·s [study E] and 0.4493 ± 0.004 mPa·s [study F] and 0.5721 ± 0.007 mPa·s [study G], the viscosity (303.15 K, 101.33 kPa) is reported as 0.501 ± 0.014 mPa·s [study A] and 0.501 ± 0.013 mPa·s [study B] and 0.4378 ± 0.0054 mPa·s [study C] and 0.464 ± 0.005 mPa·s [study D] and 0.4379 ± 0.004 mPa·s [study E] and the viscosity (308.15 K, 101 kPa) is reported as 0.4249 ± 0.044 mPa·s [study A] and 0.4249 ± 0.0058 mPa·s [study B] and 0.417 ± 0.0054 mPa·s [study C] and 0.421 ± 0.002 mPa·s [study D] and 0.3817 ± 0.01 mPa·s [study E].
